# Where “and” joins values, the source holds several entries; their conditions need not be identical. Equal entries are not always repeated. Structures can show the parent of a compound that is named as a salt. Screen size: about 5,800 compounds; about 620 (11%) showed activity.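 Rule for the calls: active = score above a cut-off or among the top three wells of a plate; in these data no inactive exceeds 0.85.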 The list shows a part of the results, in another mix than the full data.
# Test system: primary human hepatic stellate cells (donor 1)
# Experiment: scaled lipid accumulation score (0 = DMSO-like, 1 = nortriptyline-like); higher = stronger HSC inactivation (lipid re-accumulation), active = hit call of the paper
# Settings: 48 h
# [1] = library stock concentration: 10 mM
# [2] = library stock concentration: 1 mM
# [3] = library stock concentration: 3.33 mM
# [4] = library stock concentration: 9.1 mM
smiles,measurement,setting,value
CNc1ccc2oc(C[C@H]3O[C@@]4(CC[C@H]3C)O[C@H]([C@H](C)C(=O)c3ccc[nH]3)[C@H](C)C[C@H]4C)nc2c1C(=O)O,scaled lipid accumulation score,library stock concentration: 9.5 mM,inactive: 0.688
CNc1ccc2oc(C[C@H]3O[C@@]4(CC[C@H]3C)O[C@H]([C@H](C)C(=O)c3ccc[nH]3)[C@H](C)C[C@H]4C)nc2c1C(=O)O [Calcimycin],scaled lipid accumulation score,[1],inactive: 0.658
O=C(O)c1ccc2[nH]cc(CCCCN3CC=C(c4ccccc4)CC3)c2c1 [Carmoxirole hydrochloride],scaled lipid accumulation score,[1],inactive: 0.073
CC(=O)O[C@@]12C[C@@H](C)[C@@]3(O)[C@@H](C=C(CO)C[C@]4(O)C(=O)C(C)=C[C@@H]34)[C@@H]1C2(C)C [Prostratin],scaled lipid accumulation score,[2],active: 0.583
O=[N+]([O-])c1cc([As](=O)(O)O)ccc1O [Roxarsone],scaled lipid accumulation score,,inactive: ≤ 0
same,scaled lipid accumulation score,library stock concentration: 7.6 mM,inactive: ≤ 0
same,scaled lipid accumulation score,[1],inactive: ≤ 0
"CC(N)Cc1cccc(C(F)(F)F)c1 (single isomer, unassigned; (+)) [(+)-Norfenfluramine hydrochloride]",scaled lipid accumulation score,[1],inactive: 0.072
c1ccc2c(c1)[I+]c1ccccc1-2 [Diphenyleneiodonium chloride],scaled lipid accumulation score,[1],inactive: 0.216 and inactive: 0.086
c1ccc2c(c1)[I+]c1ccccc1-2 [Diphenyleneiodonium],scaled lipid accumulation score,library stock concentration: 17.9 mM,inactive: 0.654
c1cncc(C2=NCCC2)c1 [Myosmine],scaled lipid accumulation score,,inactive: ≤ 0
CCCN(CCC)C1CCc2cccc(O)c2C1 (configuration not stated),scaled lipid accumulation score,[1],inactive: ≤ -0.07
CCCN(CCC)C1CCc2cccc(O)c2C1 (configuration not stated) [8-Hydroxy-DPAT hydrobromide],scaled lipid accumulation score,[1],inactive: 0.055
Cn1c2cccc(=O)c-2nc2ccccc21 [Pyocyanin],scaled lipid accumulation score,[2],inactive: ≤ 0
C[C@]12CC[C@@H]3c4ccc(OC(=O)N(CCCl)CCCl)cc4CC[C@H]3[C@@H]1CC[C@@H]2O,scaled lipid accumulation score,[1],inactive: 0.409
CCCN1CCc2cccc3c2[C@H]1Cc1ccc(O)c(O)c1-3 [R(-)-Propylnorapomorphine hydrochloride],scaled lipid accumulation score,[1],inactive: ≤ -0.038
Cc1ccc(C[N+](C)(C)C)o1 [5-Methylfurmethiodide],scaled lipid accumulation score,[1],inactive: 0.011
CCCCCCCCCCCCCCCC(=O)OCC(COP(=O)([O-])OCC[N+](C)(C)C)OC(C)=O (configuration not stated),scaled lipid accumulation score,[2],inactive: 0.014
c1cc(N2CCNCC2)c2cc[nH]c2c1 [4-(1-piperazinyl)-1H-Indole (hydrochloride)],scaled lipid accumulation score,[2],inactive: ≤ 0
O=c1[nH]c2ccccc2n1C1CCN(Cc2ccc(-c3[nH]c4cc5ncnc5cc4nc3-c3ccccc3)cc2)CC1 [Sigma A6730],scaled lipid accumulation score,library stock concentration: 80 uM,inactive: ≤ 0
same,scaled lipid accumulation score,library stock concentration: 400 uM,inactive: ≤ 0
same,scaled lipid accumulation score,library stock concentration: 2 mM,inactive: 0.055
same,scaled lipid accumulation score,[1],inactive: 0.683
CCCCC/C=C\C=C\[C@H](CCCCCCCC(=O)O)OO,scaled lipid accumulation score,library stock concentration: 100 uM,inactive: ≤ -0.021
CC(C)(Cc1c[nH]c2ccc(Cl)cc12)NCCOc1ccccc1OCC1CC1,scaled lipid accumulation score,[1],inactive: 0.301
CC1=C(O)C(=O)C=C2C1=CC=C1[C@@]2(C)CC[C@@]2(C)[C@@H]3C[C@](C)(C(=O)O)CC[C@]3(C)CC[C@]12C [Celastrol],scaled lipid accumulation score,[2],active: 1.34
CC(=O)NBr [N-Bromoacetamide],scaled lipid accumulation score,[1],inactive: 0.283
O=S(=O)(F)Cc1ccccc1,scaled lipid accumulation score,[3],inactive: ≤ 0
same,scaled lipid accumulation score,[1],inactive: ≤ 0
C=CCc1ccccc1OCC(O)CNC1(C)CCC(C(C)(C)NC(=O)CBr)CC1 (configuration not stated) [Bromoacetyl alprenolol menthane],scaled lipid accumulation score,[1],inactive: ≤ 0
CC(=O)OCC(=O)[C@H]1CC[C@H]2[C@@H]3CC[C@H]4C[C@H](O)CC[C@]4(C)[C@H]3C(=O)C[C@]12C [Alfadolone acetate],scaled lipid accumulation score,,inactive: 0.097
C=C[C@]12CN(C)[C@@H]3[C@H]4CO[C@H](C[C@H]41)[C@]1(C(=O)Nc4ccccc41)[C@@H]32 [Gelsemine],scaled lipid accumulation score,,inactive: ≤ 0
CC(C)NP(=O)(NC(C)C)OP(=O)(NC(C)C)NC(C)C [Tetraisopropyl pyrophosphoramide],scaled lipid accumulation score,[1],inactive: ≤ 0
C=C(C)[C@@H]1[C@H]2OC(=O)[C@@H]1[C@]1(O)C[C@H]3O[C@]34C(=O)O[C@H]2[C@]14C [Picrotoxinin],scaled lipid accumulation score,,inactive: ≤ 0
N#CCCN [3-Aminopropionitrile fumarate],scaled lipid accumulation score,[1],inactive: ≤ 0
CC(C)c1c(CN(C)C(C)Cc2ccccc2)n(C)n(-c2ccccc2)c1=O (configuration not stated) [Famprofazone],scaled lipid accumulation score,,inactive: ≤ 0
Oc1ccc(Cl)cc1 [Parachlorophenol],scaled lipid accumulation score,[1],inactive: ≤ 0
same,scaled lipid accumulation score,library stock concentration: 15.6 mM,inactive: ≤ -0.001
O=[N+]([O-])C=Cc1ccc2c(c1)OCO2,scaled lipid accumulation score,[3],active: 1.44
same,scaled lipid accumulation score,[1],active: 0.901
CCCCCCCCCCCCCCCC(=O)OC[C@H](COP(=O)([O-])OCC[N+](C)(C)C)OC(=O)CCCC=O,scaled lipid accumulation score,[2],inactive: 0.028
CN1CC[C@@]2(C)c3cc(OC(=O)Nc4ccccc4)ccc3N(C)[C@@H]12 [Phenserine],scaled lipid accumulation score,[1],inactive: 0.339
CC(=O)Oc1ccc(Cl)c2cccnc12 [Chloroacetoxyquinoline],scaled lipid accumulation score,[1],inactive: ≤ -0.027
O=P1(NCCCl)OCCCN1CCCl (configuration not stated) [Ifosfamide],scaled lipid accumulation score,,inactive: ≤ 0
same,scaled lipid accumulation score,[3],inactive: 0.005
same,scaled lipid accumulation score,library stock concentration: 7.7 mM,inactive: ≤ 0
same,scaled lipid accumulation score,[1],inactive: ≤ 0
COc1ccc(C(=O)c2c(C)n(CCN3CCOCC3)c3cc(I)ccc23)cc1,scaled lipid accumulation score,[1],inactive: 0.048
"CCCCC/C=C\C/C=C\C/C=C\C/C=C\CCCC(=O)NCCO [Anandamide (18:2,n-6)]",scaled lipid accumulation score,[2],inactive: ≤ -0.021
"CCCCC/C=C\C/C=C\C/C=C\C/C=C\CCCC(=O)NCCO [Anandamide (20:4, n-6)]",scaled lipid accumulation score,[2],inactive: ≤ -0.013
CCCCC/C=C\C/C=C\C/C=C\C/C=C\CCCC(=O)NCCO [Arachidonoyl Ethanolamide],scaled lipid accumulation score,[2],inactive: 0.021
"CCCCC/C=C\C/C=C\C/C=C\C/C=C\CCCC(=O)NCCO [Anandamide (20:3,n-6)]",scaled lipid accumulation score,[2],inactive: ≤ -0.021
"CCCCC/C=C\C/C=C\C/C=C\C/C=C\CCCC(=O)NCCO [Anandamide (22:4,n-6)]",scaled lipid accumulation score,[2],inactive: ≤ -0.021
C[C@H](N)Cn1ccc2cc(F)c(Cl)cc21.O=C(O)/C=C/C(=O)O [Ro 60-0175 fumarate],scaled lipid accumulation score,[1],active: 0.953
C=CCN1C[C@H](C(=O)N(CCCN(C)C)C(=O)NCC)C[C@@H]2c3cccc4[nH]cc(c34)C[C@H]21 [Cabergoline],scaled lipid accumulation score,library stock concentration: 4.4 mM,inactive: 0.368
Oc1ccc2c3c1O[C@H]1c4oc5ccccc5c4C[C@@]4(O)[C@@H](C2)N(CC2CC2)CC[C@]314 [Naltriben mesylate],scaled lipid accumulation score,library stock concentration: 4.8 mM,inactive: 0.403
NCc1cc(O)no1 [Muscimol hydrobromide],scaled lipid accumulation score,[1],inactive: 0.274
NCc1cc(O)no1 [Muscimol],scaled lipid accumulation score,[1],inactive: 0.065
NC(=O)CN1CCCC1=O [Piracetam],scaled lipid accumulation score,,inactive: ≤ 0
same,scaled lipid accumulation score,[3],inactive: ≤ 0
same,scaled lipid accumulation score,[1],inactive: ≤ 0 and inactive: 0.142
COc1cc2c(cc1OC)C(C)NCC2 (configuration not stated),scaled lipid accumulation score,,inactive: 0.537
O=c1[nH]c(=O)n(Cl)c(=O)n1Cl,scaled lipid accumulation score,[1],inactive: ≤ 0
O=C(Oc1ccc([N+](=O)[O-])cc1)N1CCC(C(O)(c2ccc3c(c2)OCO3)c2ccc3c(c2)OCO3)CC1,scaled lipid accumulation score,[3],inactive: ≤ 0
same,scaled lipid accumulation score,[1],inactive: ≤ -0.001
Cc1ccc(S(=O)(=O)N[C@@H](CCCCN)C(=O)CCl)cc1 [Na-p-Tosyl-L-lysine chloromethyl ketone hydrochloride],scaled lipid accumulation score,[1],inactive: ≤ 0
Cc1ccc(S(=O)(=O)N[C@@H](CCCCN)C(=O)CCl)cc1 [Tosyllysine Chloromethyl Ketone (hydrochloride)],scaled lipid accumulation score,[2],inactive: ≤ 0
CCCN1CCC[C@@H](c2cccc(O)c2)C1 [S(-)-3PPP hydrochloride],scaled lipid accumulation score,[1],inactive: ≤ 0
CN1C(=O)COc2c(C(=O)NC3CN4CCC3CC4)cc(Cl)cc21 (configuration not stated) [Azasetron],scaled lipid accumulation score,[1],inactive: ≤ 0
O=C1CN=C(c2ccccc2)c2cc([N+](=O)[O-])ccc2N1 [Nitrazepam],scaled lipid accumulation score,[1],inactive: ≤ 0
CC(=O)OCC1=C(C(=O)O)N2C(=O)[C@@H](NC(=O)CCC[C@@H](N)C(=O)O)[C@H]2SC1 [Cephalosporin c sodium],scaled lipid accumulation score,[1],inactive: ≤ 0
"CCCCC/C=C\C/C=C\C/C=C\C/C=C\CCCC(=O)N(C)C [Arachidonoyl-N,N-dimethyl amide]",scaled lipid accumulation score,[2],inactive: 0.01
COc1ccc2cc(C(C#N)OC(=O)OCC3OC3c3ccccc3)ccc2c1 (configuration not stated) [Epoxy Fluor 7],scaled lipid accumulation score,[2],inactive: 0.009
COc1cc2c(cc1OC)C1CC(=O)C(CC(C)C)CN1CC2 (configuration not stated) [Tetrabenazine],scaled lipid accumulation score,[1],inactive: ≤ 0 and inactive: ≤ -0.001
CCCCC/C=C\C/C=C\C/C=C\C/C=C\CCCC(=O)Nc1ccc(O)cc1,scaled lipid accumulation score,[2],inactive: ≤ 0
same,scaled lipid accumulation score,[1],inactive: ≤ 0 and inactive: 0.165
CCNC(=O)[C@H]1O[C@@H](n2cnc3c(N)ncnc32)[C@H](O)[C@@H]1O [5'-N-Ethylcarboxamidoadenosine],scaled lipid accumulation score,[1],inactive: 0.157
CCNC(=O)[C@H]1O[C@@H](n2cnc3c(N)ncnc32)[C@H](O)[C@@H]1O,scaled lipid accumulation score,[1],inactive: ≤ -0.006
O=C1CCC[C@@H]2[C@H]3CCCN4CCC[C@@H](CN12)[C@@H]34 [(+)-Matrine],scaled lipid accumulation score,[3],inactive: ≤ 0
same,scaled lipid accumulation score,[1],inactive: ≤ 0
Cc1cccc(C)c1NC1=NCCCS1 [Xylazine hydrochloride],scaled lipid accumulation score,[1],inactive: 0.141
Cc1cccc(C)c1NC1=NCCCS1 [Xylazine],scaled lipid accumulation score,,inactive: 0.095
same,scaled lipid accumulation score,[4],inactive: ≤ 0
same,scaled lipid accumulation score,[1],inactive: 0.054
Cc1cccc(C)c1NC1=NCCCS1 [Xylazine HCl],scaled lipid accumulation score,[3],inactive: ≤ 0
same,scaled lipid accumulation score,[4],inactive: ≤ -0.006
same,scaled lipid accumulation score,[1],inactive: ≤ 0

# — the supplement of paper PMC9135407
